Measurements reported in the supplement of paper PMC8728848.
Some of the results follow.

Columns and labels:
Test in all cases: glycan array binding signal (z-score within array); higher = stronger binding
Conditions in all cases: glycan notation: IUPAC condensed, linker removed
[1] = biological target: GalNAc(b1-3)Gal(a1-4)Gal(b1-4)GlcNAc
In short: (§1)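 Columns mapping to the same glycan were averaged after glycan names were converted to IUPAC-condensed notation. The data come from 3228 arrays in the Consortium for Functional Glycomics database, limited to those with an available protein sequence. Binding is reported as a within-array Z-score averaged across arrays of one protein sequence and across linkers.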

[2] = biological target: GalNAc(b1-3)Gal(a1-4)Gal(b1-4)GlcNAc(b1-3)Gal(b1-4)Glc
In short: as §1

[3] = biological target: GalNAc(b1-3)Gal(a1-6)Gal(b1-4)Glc
In short: as §1

[4] = biological target: GalNAc(b1-3)GalNAc
In short: as §1

[5] = biological target: GalNAc(b1-4)GlcNAc
In short: as §1

[6] = biological target: GalNAc(b1-4)GlcNAc(b1-2)Man(a1-3)[GalNAc(b1-4)GlcNAc(b1-2)Man(a1-6)]Man(b1-4)GlcNAc(b1-4)GlcNAc
In short: as §1

[7] = biological target: GalNAc(b1-6)GalNAc
In short: as §1

[8] = biological target: Glc(a1-4)Glc
In short: as §1

[9] = biological target: Glc(a1-6)Glc(a1-6)Glc
In short: as §1

[10] = biological target: Glc(b1-4)Glc
In short: as §1

[11] = biological target: Glc(b1-6)Glc
In short: as §1

[12] = biological target: GlcA(b1-3)Gal
In short: as §1

[13] = biological target: GlcA(b1-3)GlcNAc
In short: as §1

[14] = biological target: GlcA(b1-6)Gal
In short: as §1

[15] = biological target: GlcNAc(a1-3)Gal(b1-4)GlcNAc
In short: as §1

[16] = biological target: GlcNAc(a1-4)Gal(b1-3)GlcNAc
In short: as §1

[17] = biological target: GlcNAc(a1-4)Gal(b1-4)GalNAc
In short: as §1

[18] = biological target: GlcNAc(a1-4)Gal(b1-4)GlcNAc
In short: as §1

[19] = biological target: GlcNAc(a1-4)Gal(b1-4)GlcNAc(b1-3)Gal(b1-4)Glc
In short: as §1

[20] = biological target: GlcNAc(a1-4)Gal(b1-4)GlcNAc(b1-3)Gal(b1-4)GlcNAc
In short: as §1

[21] = biological target: GlcNAc(a1-4)Gal(b1-4)GlcNAc(b1-3)Gal(b1-4)GlcNAc(b1-3)Gal(b1-4)GlcNAc
In short: as §1

[22] = biological target: GlcNAc(a1-4)Gal(b1-4)GlcNAc(b1-3)Gal(b1-4)[Fuc(a1-3)]GlcNAc(b1-3)Gal(b1-4)[Fuc(a1-3)]GlcNAc
In short: as §1

[23] = biological target: GlcNAc(a1-6)Gal(b1-4)GlcNAc
In short: as §1

[24] = biological target: GlcNAc(b1-2)Gal(b1-3)GalNAc
In short: as §1

[25] = biological target: GlcNAc(b1-2)Man(a1-3)[GlcNAc(b1-2)Man(a1-6)]Man(b1-4)GlcNAc(b1-4)GlcNAc
In short: as §1

[26] = biological target: GlcNAc(b1-2)Man(a1-3)[GlcNAc(b1-2)Man(a1-6)]Man(b1-4)GlcNAc(b1-4)[Fuc(a1-6)]GlcNAc
In short: as §1

[27] = biological target: GlcNAc(b1-2)Man(a1-3)[GlcNAc(b1-4)][GlcNAc(b1-2)Man(a1-6)]Man(b1-4)GlcNAc(b1-4)GlcNAc
In short: as §1

[28] = biological target: GlcNAc(b1-2)[GlcNAc(b1-4)]Man(a1-3)[GlcNAc(b1-2)Man(a1-6)]Man(b1-4)GlcNAc(b1-4)GlcNAc
In short: as §1

[29] = biological target: GlcNAc(b1-2)[GlcNAc(b1-4)]Man(a1-3)[GlcNAc(b1-4)][GlcNAc(b1-2)Man(a1-6)]Man(b1-4)GlcNAc(b1-4)GlcNAc
In short: as §1

[30] = biological target: GlcNAc(b1-2)[GlcNAc(b1-4)]Man(a1-3)[GlcNAc(b1-4)][GlcNAc(b1-2)[GlcNAc(b1-6)]Man(a1-6)]Man(b1-4)GlcNAc(b1-4)GlcNAc
In short: as §1

[31] = biological target: GlcNAc(b1-2)[GlcNAc(b1-6)]Man(a1-6)[GlcNAc(b1-2)Man(a1-3)]Man(b1-4)GlcNAc(b1-4)GlcNAc
In short: as §1

[32] = biological target: GlcNAc(b1-2)[GlcNAc(b1-6)]Man(a1-6)[GlcNAc(b1-2)Man(a1-3)][GlcNAc(b1-4)]Man(b1-4)GlcNAc(b1-4)GlcNAc
In short: as §1

[33] = biological target: GlcNAc(b1-3)Gal
In short: as §1

[34] = biological target: GlcNAc(b1-3)Gal(b1-3)GalNAc
In short: as §1

[35] = biological target: GlcNAc(b1-3)Gal(b1-4)Glc
In short: as §1

[36] = biological target: GlcNAc(b1-3)Gal(b1-4)GlcNAc
In short: as §1

[37] = biological target: GlcNAc(b1-3)Gal(b1-4)GlcNAc(b1-3)Gal(b1-4)GlcNAc
In short: as §1

B1: PILRa (Homo sapiens), Q9UKJ1 (protein)
chain: MGRPLLLPLLPLLLPPAFLQPSGSTGSGPSYLYGVTQPKHLSASMGGSVEIPFSFYYPWELATAPDVRISWRRGHFHRQSFYSTRPPSIHKDYVNRLFLNWTEGQKSGFLRISNLQKQDQSVYFCRVELDTRSSGRQQWQSIEGTKLSITQAVTTTTQRPSSMTTTWRLSSTTTTTGLRVTQGKRRSDSWHISLETAVGVAVAVTVLGIMILGLICLLRWRRRKGQQRTKATTPAREPFQNTEEPYENIRNEGQNTDPKLNPKDDGIVYASLALSSSTSPRAPPSHRPLKSPQNETLYSVLKA
[1]
  glycan array binding signal (z-score): -0.112
[2]
  glycan array binding signal (z-score): -0.169
[3]
  glycan array binding signal (z-score): -0.215
[4]
  glycan array binding signal (z-score): -0.203
[5]
  glycan array binding signal (z-score): -0.212
[6]
  glycan array binding signal (z-score): -0.281
[7]
  glycan array binding signal (z-score): -0.4
[8]
  glycan array binding signal (z-score): -0.234
[9]
  glycan array binding signal (z-score): -0.197
[10]
  glycan array binding signal (z-score): -0.256
[11]
  glycan array binding signal (z-score): -0.358
[12]
  glycan array binding signal (z-score): -0.198
[13]
  glycan array binding signal (z-score): 6.02
[14]
  glycan array binding signal (z-score): -0.177
[15]
  glycan array binding signal (z-score): 0.089
[16]
  glycan array binding signal (z-score): -0.132
[17]
  glycan array binding signal (z-score): -0.073
[18]
  glycan array binding signal (z-score): -0.17
[19]
  glycan array binding signal (z-score): -0.023
[20]
  glycan array binding signal (z-score): -0.113
[21]
  glycan array binding signal (z-score): 1.33
[22]
  glycan array binding signal (z-score): 0.065
[23]
  glycan array binding signal (z-score): -0.279
[24]
  glycan array binding signal (z-score): -0.101
[25]
  glycan array binding signal (z-score): -0.167
[26]
  glycan array binding signal (z-score): -0.14
[27]
  glycan array binding signal (z-score): -0.121
[28]
  glycan array binding signal (z-score): -0.229
[29]
  glycan array binding signal (z-score): -0.212
[30]
  glycan array binding signal (z-score): 0.006
[31]
  glycan array binding signal (z-score): -0.167
[32]
  glycan array binding signal (z-score): -0.193
[33]
  glycan array binding signal (z-score): -0.28
[34]
  glycan array binding signal (z-score): 0.384
[35]
  glycan array binding signal (z-score): -0.077
[36]
  glycan array binding signal (z-score): -0.326
[37]
  glycan array binding signal (z-score): -0.259
